Measured values published in patent US20230250147A1, “GLP-1R AGONISTIC PEPTIDES WITH REDUCED ACTIVITY” (SANOFI, priority 2020, published 2023).

T1: Mouse GLP-1R (Mus musculus, UniProt O35659)
T1 construct: expressed in transfected cells; host or cells: HEK-293
T1 sequence (O35659 22-463): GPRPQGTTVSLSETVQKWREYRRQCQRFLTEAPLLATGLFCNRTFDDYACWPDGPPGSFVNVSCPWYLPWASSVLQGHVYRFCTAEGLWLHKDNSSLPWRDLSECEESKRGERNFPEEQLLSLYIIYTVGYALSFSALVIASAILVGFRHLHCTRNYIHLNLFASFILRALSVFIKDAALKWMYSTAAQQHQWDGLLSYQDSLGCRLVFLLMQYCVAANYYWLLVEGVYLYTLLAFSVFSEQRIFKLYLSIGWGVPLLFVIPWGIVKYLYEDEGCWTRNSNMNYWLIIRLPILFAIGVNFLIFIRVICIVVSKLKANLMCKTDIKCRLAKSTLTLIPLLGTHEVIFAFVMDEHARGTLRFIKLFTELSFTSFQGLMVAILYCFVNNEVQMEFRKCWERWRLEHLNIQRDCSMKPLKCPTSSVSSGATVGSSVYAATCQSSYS

B1: 206 (protein)
chain: HGEGTFTSDLSKQLEKRLVRLFYEWLLNGGHSSQKPPPKGGGGGGGSGGGGSGGGGSA[… human IgG4 Fc with changes …]GGGSGSAHPIPDSSPLLQFGGQVRQRYLYTDDACQTEAHLEIREDGTVGGAADQSPESLLQLKALKPGVIQILGVKTSRFLCQRPDGALYGSLHFDPEACSFRELLLEDGYNVYQSEAHGLPLHLPGCKSPHRDPAPRGPARFLPLPGLPPAPPEPPGILAPQPPDVGSSDPLSMVGSQGRSPSYAS
modifications: Fusion Protein
B2: 207 (protein)
chain: HGEGTFTSDLSKQLEKRLVRLFYEWLKNGGHSSGKPPPKGGGGGGGSGGGGSGGGGSA[… human IgG4 Fc with changes …]GGGSGSAHPIPDSSPLLQFGGQVRQRYLYTDDACQTEAHLEIREDGTVGGAADQSPESLLQLKALKPGVIQILGVKTSRFLCQRPDGALYGSLHFDPEACSFRELLLEDGYNVYQSEAHGLPLHLPGCKSPHRDPAPRGPARFLPLPGLPPAPPEPPGILAPQPPDVGSSDPLSMVGSQGRSPSYAS
modifications: Fusion Protein
B3: 208 (protein)
chain: GHGEGTFTSDKSKQLEEEAVRLFIEWLKAGGPKKIRYSGGGGGGGSGGGGSGGGGSA[… human IgG4 Fc with changes …]GGGSGSAHPIPDSSPLLQFGGQVRQRYLYTDDACQTEAHLEIREDGTVGGAADQSPESLLQLKALKPGVIQILGVKTSRFLCQRPDGALYGSLHFDPEACSFRELLLEDGYNVYQSEAHGLPLHLCGNKSPHRDPAPRGPARFLPLPGLPPAPPEPPGILAPQPPDVGSSDPLSMVYPSQGRSPSYAS
modifications: Fusion Protein
B4: 209 (protein)
chain: GHGEGTFTSDKSKQLEEEAVRLFIEWLKAGGPKKIRYSGGGGGGGSGGGGSGGGGSA[… human IgG4 Fc with changes …]GGGSGSAHPIPDSSPLLQFGGQVRQRYLYTDDACQTEAHLEIREDGTVGGAADQSPESLLQLKALKPGVIQILGVKTSRFLCQRPDGALYGSLHFDPEACSFRELLLEDGYNVYQSEAHGLPLHLCGNKSPHRDPAPRGPARFLPLPGLPPAPPEPPGILAPQPPDVGSSDPLSMVGSQGRSPSYAS
modifications: Fusion Protein
B5: 211 (protein)
chain: GHGEGTFTSDLSKQLEEEAVRLFIEWLKAGGPKKIRYSGGGGGGGSGGGGSGGGGSA[… human IgG4 Fc with changes …]GGGSGSAHPIPDSSPLLQFGGQVRQRYLYTDDACQTEAHLEIREDGTVGGAADQSPESLLQLKALKPGVIQILGVKTSRFLCQRPDGALYGSLHFDPEACSFRELLLEDGYNVYQSEAHGLPLHLPGCKSPHRDPAPRGPARFLPLPGLPPAPPEPPGILAPQPPDVGSSDPLSMVGSQGRSPSYAS
modifications: Fusion Protein
B6: 212 (protein)
chain: GHGEGTFTSDLSKQLEEEAVQLFIEWLKAGGPKKIRYSGGGGGGGSGGGGSGGGGSA[… human IgG4 Fc with changes …]GGGSGSAHPIPDSSPLLQFGGQVRQRYLYTDDACQTEAHLEIREDGTVGGAADQSPESLLQLKALKPGVIQILGVKTSRFLCQRPDGALYGSLHFDPEACSFRELLLEDGYNVYQSEAHGLPLHLPGCKSPHRDPAPRGPARFLPLPGLPPAPPEPPGILAPQPPDVGSSDPLSMVGSQGRSPSYAS
modifications: Fusion Protein
B7: 229 (protein)
chain: HGEGTFTSDKSKQLEKRLVRLFYEWLIAGGHSSGKPPPKGGGGGGGSGGGGSGGGGSA[… human IgG1 Fc with changes …]GGGSGSAHPIPDSSPLLQFGGQVRQRYLYTDDACQTEAHLEIREDGTVGGAADQSPESLLQLKALKPGVIQILGVKTSRFLCQRPDGALYGSLHFDPEACSFRELLLEDGYNVYQSEAHGLPLHLPGCKSPHRDPAPRGPARFLPLPGLPPAPPEPPGILAPQPPDVGSSDPLSMVYPSQGRSPSYAS
modifications: Fusion Protein
B8: 25 (protein)
chain: HGEGTFTSDLSILLDEEAVRLFIEWLLATGPVSGAPPPSGGGGGGGSGGGGSGGGGSA[… human IgG4 Fc with changes …]GGGSGSAHPIPDSSPLLQFGGQVRQRYLYTDDACQTEAHLEIREDGTVGGAADQSPESLLQLKALKPGVIQILGVKTSRFLCQRPDGALYGSLHFDPEACSFRELLLEDGYNVYQSEAHGLPLHLCGNKSPHRDPAPRGPARFLPLPGLPPAPPEPPGILAPQPPDVGSSDPLSMVGSQGRSPSYAS
modifications: Fusion Protein
B9: 26 (protein)
chain: HGEGTFTSDLSILLDEEAVRLFIEWLLATGPVSGAPPPSGGGGGGGSGGGGSGGGGSA[… human IgG4 Fc with changes …]GGGSGSAHPIPDSSPLLQFGGQVRQRYLYTDDACQTEAHLEIREDGTVGGAADQSPESLLQLKALKPGVIQILGVKTSRFLCQRPDGALYGSLHFDPEACSFRELLLEDGYNVYQSEAHGLPLHLPGCKSPHRDPAPRGPARFLPLPGLPPAPPEPPGILAPQPPDVGSSDPLSMVGSQGRSPSYAS
modifications: Fusion Protein
B10: 27 (protein)
chain: HGEGTFTSDLSILLDEEAVRLFIEWLLATGPVSGAPPPSGGGGGGGSGGGGSGGGGSA[… human IgG4 Fc with changes …]GGGSGSAHPIPDSSPLLQFGGQVRQRYLYTDDACQTEAHLEIREDGTVGGAADQSPESLLQLKALKPGVIQILGVKTSRFLCQRPDGALYGSLHFDPEACSFRELLLEDGYNVYQSEAHGLPLHLPGCKSPHRDPAPRGPARFLPLPGLPPAPPEPPGILAPQPPDVGSSDPLSMVYPSQGRSPSYAS
modifications: Fusion Protein
B11: 28 (protein)
chain: HGEGTFTSDLSILLDEEAVREFIEWLLATGPVSGAPPPSGGGGGGGSGGGGSGGGGSA[… human IgG4 Fc with changes …]GGGSGSAHPIPDSSPLLQFGGQVRQRYLYTDDACQTEAHLEIREDGTVGGAADQSPESLLQLKALKPGVIQILGVKTSRFLCQRPDGALYGSLHFDPEACSFRELLLEDGYNVYQSEAHGLPLHLCGNKSPHRDPAPRGPARFLPLPGLPPAPPEPPGILAPQPPDVGSSDPLSMVGSQGRSPSYAS
modifications: Fusion Protein
B12: 29 (protein)
chain: HGEGTFTSDLSILLDEEAVREFIEWLLATGPVSGAPPPSGGGGGGGSGGGGSGGGGSA[… human IgG4 Fc with changes …]GGGSGSAHPIPDSSPLLQFGGQVRQRYLYTDDACQTEAHLEIREDGTVGGAADQSPESLLQLKALKPGVIQILGVKTSRFLCQRPDGALYGSLHFDPEACSFRELLLEDGYNVYQSEAHGLPLHLCGNKSPHRDPAPRGPARFLPLPGLPPAPPEPPGILAPQPPDVGSSDPLSMVYPSQGRSPSYAS
modifications: Fusion Protein

Target: T1, Mouse GLP-1R
Assay: HTRF cAMP assay in HEK-293 cells, mouse GLP-1R
Assay type: cell-based
Protocol: (§1) Recombinant HEK-293 cells were grown in T175 culture flasks placed at 37° C. to near confluence in medium (DMEM with 10% FBS) and collected in 2 mL vials in cell culture medium containing 10% DMSO in concentrations of 1-5×10^7 cells/mL. Each vial contained 1.8 mL cell suspension. The vials were slowly frozen to −80° C. in an isopropanol chamber, and then transferred to liquid nitrogen for long term storage.
(§2) Prior to their use, frozen cells were thawed quickly at 37° C., washed with 20 mL cell buffer (1×HBSS; 20 mM HEPES, 0.1% BSA) and centrifuged for 5 minutes at 900 rpm. Cells were resuspended in assay buffer (cell buffer plus 2 mM IBMX) and adjusted to a cell density of 1×10^6 cells/mL. For measurement, 5 μL cell suspension (final 5×10^3 cells/well) and 5 μL of test compound were added to a well of a 384-well plate, followed by incubation for 30 minutes at room temperature. […] The cAMP content of cells was determined using a kit from Cisbio Corp. (cat. no. 62AM4PEC) based on Homogenous Time Resolved Fluorescence (HTRF).

Molecule	EC50 [nM]
B1	0.0937
B2	0.128
B3	0.128
B4	0.118
B5	0.152
B6	0.287
B7	0.47
B8	0.101
B9	0.0953
B10	0.091
B11	0.107
B12	0.113

Target: T2, Human GLP-1R (Homo sapiens, UniProt P43220)
T2 construct: expressed in transfected cells; host or cells: HEK-293
Assay: HTRF cAMP assay in HEK-293 cells, human GLP-1R
Assay type: cell-based

T2 sequence (P43220 24-463): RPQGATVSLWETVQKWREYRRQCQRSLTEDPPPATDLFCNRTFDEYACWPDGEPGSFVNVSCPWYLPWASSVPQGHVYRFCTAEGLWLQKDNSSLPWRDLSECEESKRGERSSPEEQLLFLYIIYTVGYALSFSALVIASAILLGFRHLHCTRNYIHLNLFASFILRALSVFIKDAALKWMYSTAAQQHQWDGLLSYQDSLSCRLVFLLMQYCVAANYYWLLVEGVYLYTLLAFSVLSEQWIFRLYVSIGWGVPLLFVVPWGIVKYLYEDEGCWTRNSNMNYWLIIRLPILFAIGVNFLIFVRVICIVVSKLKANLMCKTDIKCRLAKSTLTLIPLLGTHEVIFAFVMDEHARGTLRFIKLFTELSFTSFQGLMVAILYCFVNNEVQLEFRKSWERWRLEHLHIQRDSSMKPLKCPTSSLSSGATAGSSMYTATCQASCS

Molecule	EC50 [nM]
B1	0.107
B2	0.147
B3	0.17
B4	0.164
B5	0.0588
B6	0.113
B7	0.0629
B8	0.0459
B9	0.0401
B10	0.0375
B11	0.0329
B12	0.0377

Target: T3, Monkey GLP-1R (Macaca fascicularis, UniProt F8V479)
T3 construct: expressed in transfected cells; host or cells: HEK-293
Assay: HTRF cAMP assay in HEK-293 cells, monkey GLP-1R
Assay type: cell-based
Protocol: as §1, §2

T3 sequence (F8V479 24-463): as the sequence (P43220 24-463) above, with S112N, F120S, S202G, L205V, L237F, W241R, I249V counted along it

Molecule	EC50 [nM]
B1	0.151
B2	0.189
B3	0.255
B4	0.232
B5	0.0685
B6	0.153
B7	0.0821
B8	0.0813
B9	0.0733
B10	0.0751
B11	0.0687
B12	0.064
